Reference: PMC6919601, “Identification of Plasmodium dipeptidyl aminopeptidase allosteric inhibitors by high throughput screening” (PLoS ONE, 2019)
The whole screen tested about 110,000 compounds, of which about 230 (0.21%) showed an effect of 50% or more. This is one part of the list.

target: DPAP1 (Plasmodium falciparum, UniProt Q8IIJ9); experiment: primary screen, percent inhibition; read by cleavage of a fluorogenic dipeptide substrate; higher = more effect of the substance; design: species or system P. falciparum D10 trophozoite lysates; single well
Sequence (Q8IIJ9 whole entry, looked up): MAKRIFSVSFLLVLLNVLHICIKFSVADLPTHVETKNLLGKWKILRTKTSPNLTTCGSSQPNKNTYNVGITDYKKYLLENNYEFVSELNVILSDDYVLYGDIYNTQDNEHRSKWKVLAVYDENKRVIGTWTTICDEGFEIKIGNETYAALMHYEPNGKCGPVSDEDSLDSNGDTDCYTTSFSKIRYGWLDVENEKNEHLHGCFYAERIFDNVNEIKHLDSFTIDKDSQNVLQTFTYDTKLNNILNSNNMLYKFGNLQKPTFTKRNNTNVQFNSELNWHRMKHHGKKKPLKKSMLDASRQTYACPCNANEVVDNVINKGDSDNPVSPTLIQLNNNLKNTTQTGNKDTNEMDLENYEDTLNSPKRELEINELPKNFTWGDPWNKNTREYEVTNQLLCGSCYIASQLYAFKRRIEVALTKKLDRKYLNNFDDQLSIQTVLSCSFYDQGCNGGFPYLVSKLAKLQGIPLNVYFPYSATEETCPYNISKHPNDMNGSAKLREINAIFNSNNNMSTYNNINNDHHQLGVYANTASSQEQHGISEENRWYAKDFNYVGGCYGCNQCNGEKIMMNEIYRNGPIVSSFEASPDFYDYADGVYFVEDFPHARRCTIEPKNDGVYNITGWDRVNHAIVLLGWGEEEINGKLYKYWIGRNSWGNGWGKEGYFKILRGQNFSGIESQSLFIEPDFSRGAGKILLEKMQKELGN
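Note: 30 min substrate incubation versus DMSO and 10 µM JCP410 controls.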

Compared with `COc1cc(-c2cc(C(=O)O)c3cc(Br)ccc3n2)cc(OC)c1OC`, `COCCN1C(=O)/C(=C/c2cc(Br)cc(OC)c2O)S/C1=N\c1ccccc1` is lower in “% Inhibition @ 10 uM” value: 0.795% for the first, -0.756% for the second.

Compared with `O=C(NCc1ccccc1)c1ccc(C2SCC(=O)N2Cc2ccccc2)cc1` (stereo not shown), `O=c1c(/C=N/CCc2ccccc2)c(NCCc2ccccc2)nc2ccccn12` is lower in “% Inhibition @ 10 uM” value: 1.96% for the first, -3.75% for the second.

Compared with `Cc1cccc(-c2cc(C(=O)NCCCn3ccnc3)c3ccccc3n2)c1`, `Cc1ccccc1CNCc1c(C(=O)O)n(Cc2ccc(F)cc2Cl)c2ccccc12` is higher in “% Inhibition @ 10 uM” value: -2.83% for the first, 1.25% for the second.

First: N#Cc1c(NC(=O)c2cccc(Cl)c2)sc2c1CCCC2
Second: Cc1cccnc1NS(=O)(=O)c1ccc2[nH]c3c(c2c1)CCCC3
The “% Inhibition @ 10 uM” value of the first is higher: -0.268% for the first, -3.88% for the second.

Going from `CCOC(=O)CC1(c2ccc(C)cc2)C(=O)c2ccccc2C1=O` to `Cc1ccc2[nH]c(C)c(-c3ccccc3)c2c1`, the “% Inhibition @ 10 uM” value rises from -4.87% to 2.08%.

First: CCc1ccc(CNCCCSc2nnnn2C)cc1
Second: CCc1nc2nc(C)cc(NCc3ccccc3OC)n2n1
The “% Inhibition @ 10 uM” value of the first is lower: 0.596% for the first, 3.5% for the second.

First: Cc1cccn2c(=O)c(/C=C(\C#N)c3nc4ccccc4s3)c(Oc3ccccc3)nc12
Second: Nc1c(C(=O)Nc2ccccc2)sc2nc(-c3ccccc3)ccc12
The “% Inhibition @ 10 uM” value of the first is higher: -5.1% for the first, -6.82% for the second.

Compared with `CCOC(=O)c1sc(NC(=O)CSc2nnc(Cc3csc(N)n3)n2C)nc1C`, `CCOC(=O)c1[nH]c(C)c(C(=O)Nc2nnc(CC)s2)c1C` is higher in “% Inhibition @ 10 uM” value: 2.23% for the first, 3.92% for the second.

First: CCOc1ccc(NC(=O)c2ccccn2)cc1
Second: COc1ccc(NC(=O)Cc2ccc(Br)cc2)cc1
The “% Inhibition @ 10 uM” value of the first is lower: -3.43% for the first, 6.07% for the second.

First: CCn1cnc2c(cnn2-c2ccc(Cl)cc2)c1=O
Second: Cc1nnc(SCC(=O)NCc2ccco2)c2nn(-c3ccc(Cl)cc3)c(C)c12
The “% Inhibition @ 10 uM” value of the first is lower: -1.75% for the first, -1.23% for the second.

Compared with `O=C(c1ccc(Cl)cc1Cl)N1CCN(c2ncccn2)CC1`, `CNS(=O)(=O)c1cccnc1N1CCN(C(C)C)CC1` is lower in “% Inhibition @ 10 uM” value: 33.3% for the first, -1.59% for the second.

Going from `Cc1cc(C(=O)Nc2ccc(N3CCOCC3)cc2)ccc1[N+](=O)[O-]` to `Cc1ccc(CCNC(=O)CN(C)S(=O)(=O)c2ccc3[nH]c4c(c3c2)CCCC4)cc1`, the “% Inhibition @ 10 uM” value falls from -2.42% to -2.77%.

Going from `COc1ccc(CN(C(C)=O)C2CC(=O)N(c3ccc(OC)cc3)C2=O)cc1` (stereo not shown) to `COC(=O)c1nc2n(n1)C(c1ccc(Cl)cc1Cl)C=C(c1ccc(OC)cc1)N2` (stereo not shown), the “% Inhibition @ 10 uM” value falls from 0.431% to -5.19%.

Going from `CCCn1c(CN(Cc2ccccc2)Cc2ccccc2)nc2c1c(=O)n(C)c(=O)n2C` to `O=c1[nH]c(=O)n(Cc2ccccc2)c2c1C(C(F)(F)F)(C(F)(F)F)NC(CCc1ccccc1)=N2`, the “% Inhibition @ 10 uM” value rises from -2.29% to 5.44%.

Compared with `Cc1ccc(N(CC(=O)N2CCN(C)CC2)S(=O)(=O)c2ccc(F)cc2)cc1`, `CC1CCN(C(=O)c2ccc(N(C)S(C)(=O)=O)cc2)CC1` is lower in “% Inhibition @ 10 uM” value: -3.95% for the first, -5.14% for the second.

First: O=C(NC(C(=O)O)C12CC3CC(CC(C3)C1)C2)c1cc(Cl)cc(Cl)c1 (stereo not shown)
Second: CS(=O)(=O)N(CC(=O)NC1CC2CCC1C2)c1ccccc1F (stereo not shown)
The “% Inhibition @ 10 uM” value of the first is higher: 0.634% for the first, -17.9% for the second.

Going from `CCC(NC(=O)Cc1ccc(OC)c(OC)c1)c1ccccc1` (stereo not shown) to `CCN(CC)C(C)C(=O)c1ccc2ccccc2c1` (stereo not shown), the “% Inhibition @ 10 uM” value rises from -9.15% to -0.0494%.

Going from `CN1c2ccccc2CC1C(C)(C)C` (stereo not shown) to `Cc1nc([N+](=O)[O-])c(N2CCN(C)CC2)n1Cc1ccccc1`, the “% Inhibition @ 10 uM” value falls from 3.72% to -0.239%.

First: CCC(C(=O)NCCCN1CCOCC1)n1nc(C)c2sc3ccccc3c2c1=O (stereo not shown)
Second: CCOCCCNC(=O)C1CCCN(S(=O)(=O)c2cccc3nsnc23)C1 (stereo not shown)
The “% Inhibition @ 10 uM” value of the first is higher: -1.01% for the first, -2.29% for the second.

First: COCCCNC(=O)CNS(=O)(=O)c1c(C)cc(C)cc1C
Second: CCCCC(=O)Nc1ccc(S(=O)(=O)NC(=O)CC)cc1
The “% Inhibition @ 10 uM” value of the first is lower: -6.83% for the first, 4.65% for the second.

Going from `COc1ccc(-c2[nH]ncc2C2N=C(N)Nc3nc4ccccc4n32)cc1` (stereo not shown) to `C=CCOc1ccc(/C=c2\sc3nc(-c4ccccc4C)nn3c2=O)cc1`, the “% Inhibition @ 10 uM” value falls from 8.96% to 0.561%.

Compared with `Cc1cc(OCC(=O)Nc2sc(C)c(C)c2C(N)=O)ccc1Cl`, `CCOC(=O)CC(=O)c1sc2nccc(N(C)C)c2c1N` is lower in “% Inhibition @ 10 uM” value: 1.08% for the first, -4.21% for the second.

First: CCn1c(C)cc(/C=C2\NC(=O)N(Cc3ccc(Cl)cc3Cl)C2=O)c1C
Second: Cc1ccc2[nH]cc(CCN)c2c1
The “% Inhibition @ 10 uM” value of the first is lower: -7.31% for the first, -3.58% for the second.

Going from `O=C(O)CCCC(=O)N1N=C(c2ccccc2)CC1c1ccc2c(c1)OCO2` (stereo not shown) to `O=C(CN1N=C(c2ccc(Cl)cc2)CCC1=O)NCc1ccc2c(c1)OCO2`, the “% Inhibition @ 10 uM” value rises from -5.96% to -1.21%.

First: COc1ccc(NC(=O)CCC2CCCCC2)c(OC)c1
Second: O=C(c1ccc2c(c1)ncn2C1CCCCC1)n1ccnc1
The “% Inhibition @ 10 uM” value of the first is higher: 2.06% for the first, -0.0542% for the second.

Going from `CSC(C)CC(C#N)NC(=O)[C@H](CC(C)C)NC(=O)OCc1ccccc1` (stereo partly shown) to `N#CCNC(=O)[C@H](CSCc1ccccc1)NC(=O)c1ccsc1`, the “% Inhibition @ 10 uM” value rises from 1.71% to 4.54%.

First: CN1C(=O)C(=CNc2ccc3c(c2)CCC3)C(=O)N(C)C1=O
Second: CCN1C/C(=C/c2ccc(F)cc2)C(=O)/C(=C/c2ccc(F)cc2)C1
The “% Inhibition @ 10 uM” value of the first is higher: 4.32% for the first, -3.79% for the second.

Going from `Nc1c2c(=O)[nH]c(=O)c2c(N)c2c(=O)c3ccccc3c(=O)c12` to `CC(=O)c1sc(N2C(=O)c3oc4ccccc4c(=O)c3C2c2ccc(C)o2)nc1C` (stereo not shown), the “% Inhibition @ 10 uM” value falls from 5.77% to 2.16%.

First: O=C1C=Cc2cc(Br)ccc2C1=O
Second: Cc1ccc(C2=N/C(=C/C=C/c3ccccc3)C(=O)O2)cc1C
The “% Inhibition @ 10 uM” value of the first is higher: 33.3% for the first, 0.997% for the second.

First: CCN1CCCC1CNC(=O)CSCc1cnn(-c2ccccc2)c1-n1cccc1 (stereo not shown)
Second: CN(CCc1ccccn1)Cc1ccccc1C(F)(F)F
The “% Inhibition @ 10 uM” value of the first is higher: 0.413% for the first, -6.35% for the second.

First: O=C(c1ccc(CS(=O)c2ccc(Cl)cc2)o1)N1CCC2(CC1)OCCO2 (stereo not shown)
Second: CCOc1ccc(-c2nnc(SCC(=O)N3CC(C)CC(C)C3)o2)cc1 (stereo not shown)
The “% Inhibition @ 10 uM” value of the first is lower: -4.96% for the first, 3.51% for the second.

Compared with `CN(C)c1ccc(/C=C/C(=O)/C=C/c2ccco2)cc1`, `CC1CCN(c2nc3c(=O)n(C)c(=O)n(C)c3[nH]2)CC1` is lower in “% Inhibition @ 10 uM” value: 2.62% for the first, 1.97% for the second.
